Assay results reported in PubChem BioAssay (NCATS).
The shares of active, inactive and inconclusive entries below differ from those in the screen. Potencies of inconclusive entries are left out as doubtful fits. The source made the active and inactive calls. The call rests on the fitted dose curve; in most records, active means well fitted cell-killing curve with a large enough effect; inconclusive means small, poorly fitted or top-dose-only effect, or effect the other way, or another doubt; inactive means no such curve, though single readings can be large or run the other way.

Assay: qHTS screen for small molecules that inhibit ELG1-dependent DNA repair: Hit Confirmation with 5FU Viability (AID 624250);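 further: viability measured 16 h after compound addition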
Details: cell viability with 5-FU; series mostly up to 46.1 µM; activity change, negative = viability loss: at the top concentration
In short: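 HEK293T ELG1-luc cells seeded, dosed ~5 h later (compound; 5-FUrd 10 µM final), incubated 16 h. Read: CellTiter-Glo viability.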
On the % scale 0 is the no-effect control and ±100 the full control effect; potency means the concentration at half of the fitted maximal effect; tags describe the fitted curve by direction and shape.

SMILES	Potency	activity change, negative = viability loss
CCC(=O)N1CCc2cc(Br)cc(S(=O)(=O)N3CCC(C(=O)NCCCOC(C)C)CC3)c21	inconclusive [rising, full curve]	
COc1ccc(Nc2cc(=O)oc3ccccc23)cc1		inactive: -7.76%
COc1ccc(OC[C@@H](O)CNC(=O)c2cccc3c2C(=O)c2ccc(-c4ccc(F)cc4OCc4ccccc4)cc2S3(=O)=O)cc1	inconclusive [rising, full curve]	
Cc1cc(NC(=O)c2cnn3c(C(F)(F)F)cc(-c4ccc(Br)cc4)nc23)no1	inconclusive [rising, full curve]	
COc1cccc(N2C(=O)C(c3ccccc3)=C(c3nc4ccccc4s3)C2NC(C)=O)c1 (stereo not given)	inconclusive [rising, full curve]	
CC(C)CNc1nnnc2c1sc1nc(N3CCOCC3)c3c(c12)CC(C)(C)SC3	inconclusive [rising, full curve]	
CCc1ccc(-c2nc(CN3CCC(C(=O)N4CCN(c5ccccn5)CC4)CC3)c(C)o2)cc1		inactive: -5.26%
CN(C(=O)c1sc2nc(N3CCOCC3)c3c(c2c1N)CCCC3)c1ccccc1	inconclusive [rising, partial curve, poor fit]	
COc1ccc(C(=O)N/C(=C\c2cccs2)c2nc3ccccc3[nH]2)cc1OC	inconclusive [rising, full curve, poor fit]	
O=C(Nc1ccccc1)c1nc[nH]c1C(=O)NCCCNC(=O)c1[nH]cnc1C(=O)Nc1ccccc1	inconclusive [rising, full curve, poor fit]	
COc1ccccc1CN(Cc1nc2ccccc2c(=O)[nH]1)S(=O)(=O)c1ccc2ccccc2c1	inconclusive [cytotoxic, single point]	
COc1ccccc1NC(=O)N(Cc1ccco1)Cc1cc2ccc(C)c(C)c2[nH]c1=O		inactive: 3.83%
COc1ccc(NC(=O)c2sc3nc(N4CCOCC4)c4c(c3c2N)CC(C)(C)OC4)cc1	inconclusive [rising, full curve, poor fit]	
Cc1sc2ncnc(N3CCC(C(=O)Nc4ccc(S(N)(=O)=O)cc4)CC3)c2c1C	inconclusive [rising, full curve, poor fit]	
COc1cc(C(=O)Oc2ccccc2/C=N/NC(=O)c2ccc(C)c(Cl)c2)cc(OC)c1OC	inconclusive [rising, partial curve]	
COc1ccc(N(C)C(=O)c2cn(CC(C)C)c(=O)c3cc(OC)c(OC)cc23)c(OC)c1	inconclusive [rising, full curve]	
CCCCn1c(N)c(-c2nc3ccccc3o2)c2c([N+](=O)[O-])nn(CC)c(=O)c21	inconclusive [rising, full curve]	
O=C(Nc1ccc(N2CCN(C(=O)c3ccco3)CC2)c(Cl)c1)c1cccs1	inconclusive [cytotoxic, single point]	
CCCCSc1nc2ccc(Nc3nc(N4CCOCC4)nc(N4CCOCC4)n3)cc2s1	inconclusive [rising, partial curve]	
O=S(=O)(c1ccc2c(c1)OCCO2)N1CCN(c2ncnc3sccc23)CC1	inconclusive [cytotoxic, partial curve, poor fit]	

SMILES	Potency	activity change, negative = viability loss
O=C1c2ccccc2N2C(=O)c3ccccc3[C@H]2N1c1ccccc1		inactive: 2.57%
O=S(=O)(c1cc(F)ccc1F)N1CCN(c2ncnc3ccccc23)CC1		inactive: -14.3%
Cc1ccc(C)c(S(=O)(=O)N2CCN(c3ncnc4sccc34)CC2)c1	inconclusive [cytotoxic, partial curve]	
COc1ccc(OC)c(CNC(=O)c2nn(C)c3c2CS(=O)(=O)c2ccccc2-3)c1		inactive: 9.35%
O=[N+]([O-])c1ccc2ncnc(N3CCN(Cc4ccc5c(c4)OCO5)CC3)c2c1		inactive: -10.6%
Cc1nn(-c2ccccc2)c(N2CCCC2)c1/C=N/NC(=O)c1cc(-c2cccnc2)nc2ccccc12		inactive: 6.11%
CC(C)C(=O)N1CCC2(CC1)Oc1ccc(Cl)cc1C(=O)C21CC(c2ccc(Cl)cc2)=NO1 (stereo not given)	inconclusive [rising, partial curve, poor fit]	
CCN1C(=O)[C@@H]2[C@@H](c3ccc(-c4ccc(Cl)c(Cl)c4)cc3)N3CCC[C@@]3(C(=O)OC)[C@@H]2C1=O	inconclusive [rising, full curve, poor fit]	
O=c1c2ccccc2nc(COc2ccccc2)n1/N=C/c1c[nH]c2ccccc12	inconclusive [rising, full curve]	
COc1ccc(Cl)cc1NC(=O)C(C)OC(=O)c1ccc(NS(=O)(=O)c2ccc3[nH]c(=O)[nH]c3c2)cc1 (stereo not given)	inconclusive [rising, full curve]	
Cc1ccc(C2CC(C(F)(F)F)n3ncc(C(=O)NCc4ccco4)c3N2)cc1 (stereo not given)	inconclusive [rising, partial curve, poor fit]	
CCOc1ccc(CCNc2nc3c(c(=O)n(C)c(=O)n3C)n2CC)cc1OCC		inactive: 4.27%
COc1cc(-c2cc(C(=O)Nc3cccc(C(C)=O)c3)c3ccccc3n2)cc(OC)c1OC	inconclusive [rising, full curve, poor fit]	
COc1cccc(CC(NC(C)=O)C(=O)NC2CCN(c3nc(C)cc(C)c3C#N)CC2)c1OC (stereo not given)	inconclusive [rising, full curve]	
CC(C)Cn1c(N)c(C(=O)COC(=O)CC23CC4CC(CC(C4)C2)C3)c(=O)n(C)c1=O		inactive: -23.6%
Cc1ccccc1N1CCN(C2=NC(=O)/C(=C/c3cn[nH]c3-c3ccccc3)S2)CC1	inconclusive [rising, full curve]	
CCOC(=O)c1c(C)[nH]c(C(=O)N2CCc3cc(OC)c(OC)cc3C2)c1C	inconclusive [rising, full curve]	
O=S(=O)(c1c(Cl)cc(Br)cc1Cl)N1CCN(C(=S)NC2CC2)CC1	inconclusive [rising, full curve]	
COc1ccc(/C=C/c2onc(C)c2S(=O)(=O)N2CCC(C(=O)N3CCCCCC3)CC2)cc1	inconclusive [rising, full curve]	
COc1cc2nc(NCC3CCCO3)n3nc(-c4cccnc4)nc3c2cc1OC (stereo not given)	inconclusive [rising, full curve, poor fit]	
